# According to PubChem BioAssay AID1347073 (National Center for Advancing Translational Sciences (NCATS), 2019):
# The campaign covered roughly 45,000 compounds. About 200 (0.44%) were called active. Not shown: some 7% with an inconclusive outcome. Calls come from the whole dose curve; as a rule, active = well fitted activation curve with a large enough effect; inconclusive = small, poorly fitted or top-dose-only effect; inactive = no such curve, though single readings can be large or run the other way. The list shows a part of the results.
# Experiment: qHTS of TDP-43 Inhibitors: NCGC Sytravon Library Screen; note: nearly all actives have a fitted effect of over 55% in size; for growth rescue (activation): 0% is about no effect
# Settings: yeast TDP-43 toxicity rescue, BacTiter-Glo growth, 24 h; series mostly up to 46.1 µM; growth rescue (activation): at the top concentration
# Outline: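 TDP-43-expressing yeast, pregrown in raffinose, seeded at OD600 0.02 in galactose medium with compound for 24 hr at 30 deg C. Growth read by BacTiter-Glo luminescence, so rescue of toxicity appears as activation.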
# Potency is the fitted concentration of half-maximal effect.
Compound,growth rescue (activation),Potency
Cc1cc(NN)nc2ccc(Cl)cc12,inactive: 3.96%,–
O=c1cc(CN2CCN(c3cccc(Cl)c3)CC2)c2cc(O)c(-c3ccccc3)cc2o1,inactive: 5.18%,–
COc1ccc(NC(=O)c2cc(-c3ccccc3O)n[nH]2)cc1Cl,inactive: -8.87%,–
COCCNC(=O)CCc1c(C)nc2c(c(C)nn2-c2ccc(C)cc2)c1C,inactive: 26.9%,–
COc1ccc(OC)c(C2=Nn3c(nnc3-c3cc(C)[nH]n3)SC2)c1,inactive: 11.4%,–
O=C(Nc1nncs1)c1cc(-c2ccncc2)nc2ccc(Cl)cc12,inactive: 10.2%,–
COc1ccc(CCNC(=O)COc2ccc(S(=O)(=O)NC3CCCCC3)cc2Cl)cc1OC,inactive: 12%,–
Cc1cccc(N(C(=O)c2snc(C(N)=O)c2N)C(C(=O)NC2CCCC2)c2ccco2)c1 (centres undefined),inactive: 2.01%,–
CN(C(=O)c1cccc(COc2ccc(Cl)cc2Cl)c1)c1ccccc1,inactive: 22.1%,–
O=C(O)C#Cc1cccc2ccccc12,inactive: -2.91%,–
COc1cccc(CN(CC(=O)NC2CCCC2)C(=O)CCC(=O)Nc2cc(C)on2)c1,inactive: 26%,–
CNC(=O)NC(=O)COC(=O)c1ccc(-n2c(C)ccc2C)cc1,inactive: 19.2%,–
CCOC(=O)CC1C(=O)NCCN1S(=O)(=O)c1ccc(OC)cc1 (centres undefined),inactive: 6.17%,–
O=S(=O)(Nc1ccc(F)cc1)c1ccc(NS(=O)(=O)c2cccs2)cc1,inactive: 4.33%,–
Cc1ccc(C(NC(=O)c2ccccc2S(C)(=O)=O)c2ccccc2)cc1 (centres undefined),inactive: 5.55%,–
CCN(Cc1ccccc1)C(=O)CSc1n[nH]c(N)n1,inactive: 3.87%,–
COc1cc2c(cc1OC)C1(CCCCC1)CN(C)C2,inactive: -1.62%,–
COc1cc(OC)cc(C(=O)OCC(=O)Nc2cccc(S(=O)(=O)NC3=NCCCCC3)c2)c1,inactive: 17.1%,–
COc1ccc(C(=O)NCCSCc2ccccc2)cc1OC,inactive: 27.4%,–
CCCC(=O)N1CCC1(C)C(=O)Nc1ccc2nccnc2c1 (centres undefined),inactive: 10.2%,–
COc1cccc(NC(=O)Cn2c(=O)n(CC(=O)NCc3ccc(C)cc3)c(=O)c3sccc32)c1,inactive: -3.59%,–
O=C(NCc1ccc(Cl)nc1)c1ccc2sc([C@@H]3O[C@H](CO)[C@H](O)[C@H](O)[C@H]3O)nc2c1,inactive: 9.19%,–
COc1ccc(NC(=O)C(c2ccccc2)c2ccccc2)cn1,inactive: 22.8%,–
O=C(COC(=O)c1ccc2c(c1)C(=O)N(CCc1ccccc1)C2=O)Nc1ccc(OC(F)F)cc1,inactive: -5.48%,–
Cc1cccc(Cn2cc3c(=O)n(Cc4cccc(F)c4)nc-3c3ccccc32)c1,inactive: 8.05%,–
COc1cc(-c2cc3nc4ccccc4n3c(N)c2C#N)cc(OC)c1OC,inactive: -13.8%,–

Compound,growth rescue (activation),Potency
Cc1ccc(/C=C/C(=O)Nc2ccc(S(N)(=O)=O)cc2)o1,inactive: 0.286%,–
O=C(Nc1ccnn1C1CCN(C/C=C/c2ccccc2)CC1)c1ccccc1Cl,inactive: 6.07%,–
COc1ccc(Cc2[nH]n3c(=O)cc(C(C)C)nc3c2-c2ccccc2)cc1,inactive: -3.67%,–
O=C(Nc1ncc([N+](=O)[O-])s1)C1CC(=O)N(c2ccc(F)cc2)C1 (centres undefined),inactive: 1.7%,–
CSCCC1NC(=O)N(CC(=O)Nc2ccc(Cl)c(S(=O)(=O)N3CCOCC3)c2)C1=O (centres undefined),inactive: -21.3%,–
Cc1cc(C)c(Cn2c3ccccc3c3cnn(CC(=O)NCc4ccccn4)c(=O)c32)c(C)c1,inactive: -1.83%,–
CC(=O)c1ccc(N=C2C(=O)Nc3ccccc32)cc1,inactive: 1.46%,–
O=[N+]([O-])c1cccc(C(=Nc2ccccc2)NO)c1,inactive: 23.4%,–
O=C(Cc1ccccc1)NN1C(=O)C2C3C=CC(C3)[C@@H]2C1=O (some centres undefined),inactive: 9.47%,–
COc1ccc(NC(=O)CS(=O)CC(=O)Nc2cccc3cccnc23)cc1 (centres undefined),inactive: 10.6%,–
COc1ccccc1CC1S/C(=N/N=C/c2ccco2)NC1=O (centres undefined),inactive: 0.935%,–
COc1ccc(CNC(=O)c2sc3nc4c(c(C(F)(F)F)c3c2N)CCC4)cc1OC,inactive: 8.29%,–
CN(C)C(=O)CSc1nc(-c2cccs2)c(-c2cccs2)[nH]1,inactive: 4.06%,–
Cc1ccc(CNC(=O)COC(=O)c2cc3c(s2)CCC(C)C3)cc1 (centres undefined),inactive: -1.98%,–
O=C(CSc1nnc(CN2CCCC2)n1-c1ccccc1)c1ccc2c(c1)OCO2,inactive: 16.1%,–
CC(C)N1CCC(N2CCN(Cc3ccc4nonc4c3)CC2CCO)CC1 (centres undefined),inactive: 26.1%,–
CCN(CC)S(=O)(=O)c1ccc(NS(=O)(=O)c2ccc(OC)c([N+](=O)[O-])c2)cc1,inactive: -14%,–
CC(C)COc1ccc(C/C(N)=N/n2cnnc2)cc1,inactive: 12.6%,–
Cc1nn(CC(=O)c2ccc3c(c2)OCCO3)c(=O)c(C#N)c1C,inactive: 8.66%,–
Cc1c(NC(=O)c2c(O)c3ccccc3n(C)c2=O)c(=O)n(-c2ccccc2)n1C,inactive: -5.51%,–
COCCNC(=O)C(C(=O)c1ccc(F)cc1)n1cc(C)ccc1=O (centres undefined),inactive: 4.37%,–
CC(=O)Nc1ccc(C(=O)N/C(=C\c2ccccc2)C(=O)Nc2cccc(C(=O)O)c2)cc1,inactive: 9.34%,–
CN(c1ccccc1)S(=O)(=O)c1cccc(NC(=O)CSc2ncn[nH]2)c1,inactive: -9.09%,–
O=C(NCc1ccccn1)NC1CCCCC1,inactive: 15%,–
O=C(Nc1ccc2c(c1)OCO2)C1CC(=O)N(c2ccccc2)C1 (centres undefined),inactive: -5.44%,–
O=[N+]([O-])c1cnn(-c2nc(-c3ccco3)cc(C(F)(F)F)n2)c1,inactive: -3.17%,–

Compound,growth rescue (activation),Potency
O=C(O)c1cccc(N2C(=O)c3cccc4c(Cl)ccc(c34)C2=O)c1,inactive: -3.25%,–
Cc1nn(C)cc1C(C(=O)NC1CCCCC1)N(C(=O)Cc1cccs1)c1ccc(Cl)cc1 (centres undefined),inactive: -11.7%,–
CCOc1ccc(N2CC(C(=O)Nc3ccc(F)cc3F)CC2=O)cc1 (centres undefined),inactive: 15.3%,–
COc1cc(OC)c(N(C)S(=O)(=O)c2cccc(C(=O)OCC(=O)N3CCOCC3)c2)cc1Cl,inactive: 24.5%,–
Cc1cc(C(=O)COC(=O)c2ccc3c(c2)NC(=O)CS3)c(C)n1CCc1ccc(Cl)cc1,inactive: 4.71%,–
COc1ccccc1OCC(=O)NCC1CCCN(C(=O)c2ccccc2C(C)=O)C1 (centres undefined),inactive: 3.06%,–
CCNC(=O)COc1ccc(/C=N/NC(=O)c2cccnc2)cc1OC,inactive: 1.35%,–
Cc1ccc(S(=O)(=O)NC(=O)NCCc2ccccc2)cc1,inactive: 20.9%,–
CSc1snnc1-c1ccccc1,inactive: 10.5%,–
CC1=CC(C)(C)[N+](C)(C)c2ccc(C)cc21,inactive: -7.04%,–
CC(C)(C)c1ccc(CC(=O)N2CCC2(C)C(=O)NS(=O)(=O)c2cccc(F)c2)cc1 (centres undefined),inactive: 9.99%,–
COc1cccc(CC2(CO)CCN(Cc3cn(C)nc3C)CC2)c1,inactive: 7.23%,–
C=C(C)/C=N/NC(=S)Nc1ccc(S(=O)(=O)N2CCOCC2)cc1,inactive: 7.15%,–
CCOC(=O)C1CCCN(S(=O)(=O)c2ccc(-n3cnnn3)c(C)c2)C1 (centres undefined),inactive: 0.582%,–
Cc1cccc(C(=O)Nc2ccc(C(=O)N/N=C/c3cccnc3)cc2)c1,inactive: 5.84%,–
COc1ccc(N2CCN(S(=O)(=O)c3ccc(-n4cnnn4)c(C)c3)CC2)cc1,inactive: 3.5%,–
Cc1ccc(C(C)C)c(OCC(=O)NNC(=O)Cc2ccc(S(=O)(=O)N3CCOCC3)s2)c1,inactive: 18%,–
CN(CC(=O)NCc1ccncc1)S(=O)(=O)c1cc(Cl)ccc1Cl,inactive: -3.95%,–
O=C(CSc1nc2ccccc2o1)N/N=C/c1ccccc1,inactive: -0.393%,–
O=C(CCCC(=O)Nc1cccnc1)Nc1cccnc1,inactive: -16.5%,–
COc1cccc(NC(=O)c2cccc(N3C(=O)C4CCC(C)CC4C3=O)c2)c1 (centres undefined),inactive: 13.2%,–
O=C(COC(=O)CNC(=O)c1ccc(Cl)cc1Cl)NNC(=O)c1ccccc1F,inactive: -0.387%,–
O=C1Nc2ccccc2/C1=C/c1ccccc1F,inactive: 9.89%,–
c1ccc(-n2nnnc2Cc2nnnn2-c2ccccc2)cc1,inactive: 8.9%,–
CCc1nc2ccc(C(=O)N3CCCC(C(N)=O)C3)cn2c1N(C=O)CC (centres undefined),inactive: 5.44%,–
COc1cccc(CN2CCC(C(=O)NC(C)c3cccc4ccccc34)CC2)c1 (centres undefined),inactive: -9.87%,–

Compound,growth rescue (activation),Potency
COc1cc(Cl)c(C)cc1NC(C)C(=O)Nc1cc(C(F)(F)F)ccc1N1CCOCC1 (centres undefined),inactive: 11.4%,–
COc1cccc(/C=N/NC(=O)c2nc(-c3ccccc3)cc(-c3ccccc3)n2)c1O,–,active: 12.6 µM
COCCNC(=O)/C(C#N)=C/c1ccc(-c2ccc(OC)cc2[N+](=O)[O-])o1,inactive: 10.8%,–
COc1ccc(CCNC(N)=S)cc1OC,inactive: -18.5%,–
CCOc1cnc(-c2c(-c3c(Cl)cccc3Cl)noc2C)o1,inactive: -28%,–
Cn1ccc(-c2cc(C(=O)O)c3ccccc3n2)n1,inactive: 12.2%,–
COc1ccccc1NC(=S)NC1CCCCC1,inactive: 36.2%,–
CC1CCN(CCC(=O)Nc2nccs2)CC1,inactive: 0.853%,–
CCc1ccccc1N(C(=O)c1snc(C(N)=O)c1N)C(C(=O)NCC1CCCO1)c1c[nH]c2ccccc12 (centres undefined),inactive: 15.8%,–
c1cc(-c2cnc3cccnn23)c2cccnc2c1,inactive: -7.82%,–
CCc1ccc(N(CC(=O)NC2CC2)S(=O)(=O)c2ccc(C)cc2)cc1,inactive: 13.6%,–
O=C(CSc1nnnn1-c1ccccc1)NCCCN1CCCC1=O,inactive: -1.57%,–
COc1cc(OC)cc(C(=O)Nc2sc3c(c2C(N)=O)CCC3)c1,inactive: -77.1%,–
CC(=O)NS(=O)(=O)c1ccc(NC(=O)c2ccc(Cl)cc2[N+](=O)[O-])cc1,inactive: 11%,–
CCn1c(C)nc2cc(C(=O)NNC(=S)NC(=O)c3ccccc3)ccc21,inactive: -14.4%,–
COc1ccc(-c2nc3c4cnn(-c5ccccc5F)c4ncn3n2)cc1,inactive: 3.95%,–
O=C(c1ccc(Cl)c(S(=O)(=O)N2CCCCCC2)c1)N1CCCC1,inactive: 15.4%,–
CCOC(=O)C1=C(C)NC(SCC(N)=O)=C(C#N)C1c1cccs1 (centres undefined),inactive: -20.4%,–
CC(CC(=O)Nc1ccc2c(c1)c(=O)n(C)n2Cc1ccc(Cl)cc1)C(F)(F)F (centres undefined),inactive: 0.348%,–
CCN(CC)S(=O)(=O)c1ccc(-c2nnc(SCC(=O)N3c4ccccc4CC3C)n2CC)cc1 (centres undefined),inactive: -20.9%,–
Cc1ccc(C)c(S(=O)(=O)Nc2ccc(C(N)=O)cc2)c1,inactive: -1.28%,–
COc1ccccc1-n1c(C)nc2cc(C(=O)NCc3ccc4c(c3)OCO4)ccc21,inactive: -4.77%,–
COc1ccc(/C=N/Nc2cn[nH]c(=O)c2Cl)cc1,inactive: 1.52%,–
CCN(Cc1ccccc1)C(=O)C(C)OC(=O)c1cc(S(=O)(=O)Nc2c(C)n(C)n(-c3ccccc3)c2=O)ccc1C (centres undefined),inactive: -1.85%,–
CCc1nc2ccc(C(=O)NCc3cccs3)cn2c1N(CC)CCOC,inactive: 16%,–
Cc1ccc2c(c1)cc(C(=O)N[C@@H](Cc1ccccc1)C(=O)O)n2C,inactive: -33%,–
